Experimental data taken from PubChem BioAssay AID504706 (National Center for Advancing Translational Sciences (NCATS), 2011).
The campaign covered roughly 320,000 compounds. About 200 (0.062%) were called active. This list was built around the results that the source calls inconclusive (neither active nor inactive); the mix of calls is not that of the screen. Calls follow the shape of the dose curve; as a rule, active = well fitted activation curve with a large enough effect; inconclusive = small, poorly fitted or top-dose-only effect; inactive = no such curve, though single readings can be large or run the other way. Potencies of inconclusive entries are left out as doubtful fits.

test: qHTS assay for re-activators of p53 using a Luc reporter; conditions: H1299 p53-A138V BP100-luciferase reporter, luminescence, 24 h; series mostly up to 92.2 µM; activity change, positive = activation: at the top concentration; also: nearly all actives have a fitted effect of over 45% in size; as to activity change, positive = activation: % of control where 0% means no effect
In short: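 p53-null H1299 cells stably carrying temperature-sensitive p53-A138V and a BP100-luciferase reporter were pinned with compounds (4-point, 1:5 series) and held 24 hrs at 37 deg C. Luminescence was read 10 min after detection reagent.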
Potency is read from the fitted curve at half-maximal effect; tags tell the direction and shape of the fitted curve.

| SMILES | activity change, positive = activation | Potency |
| --- | --- | --- |
| COc1cccc(C(=O)COC(=O)c2cccs2)c1 | inactive: 11.6% |  |
| CCCCNc1ccc(C(=O)Nc2cccc(C)n2)cc1[N+](=O)[O-] |  | inconclusive [activator, single point] |
| CCCn1c(NC(=O)c2ccc(Cl)c(S(=O)(=O)N3CCCC3)c2)nc2ccccc21 |  | inconclusive [activator, full curve, poor fit] |
| CC1CCCCC1NC(=O)CSc1nnc(-c2ccco2)n1C (stereo not given) |  | inconclusive [activator, full curve, poor fit] |
| CCOC(=O)c1c(NC(=O)CSc2nnnn2-c2ccccc2OCC)sc2c1CC(C)(C)NC2(C)C |  | inconclusive [activator, single point] |
| O=C1C=C(/C=C/c2ccccc2)C[C@@H](c2ccc(F)cc2)C1 |  | inconclusive [activator, partial curve, poor fit] |
| CC1(C)Cc2c(C#N)c(NCCN3CCOCC3)nc(-c3ccccc3)c2CO1 | inactive: -3.74% |  |
| CCOC(=O)C1=C(O)/C(=C/c2cccc(OC)c2O)N=C1C |  | inconclusive [activator, partial curve, poor fit] |
| Cc1nc(N2CCN(c3ccccn3)CC2)c2c(C)c(C(=O)Nc3c(F)cc(F)cc3Br)sc2n1 | inactive: -9.31% |  |
| O=C(COc1ccccc1[N+](=O)[O-])N/N=C/c1cccc(OC(=O)c2ccc3c(c2)OCO3)c1 |  | inconclusive [activator, full curve, poor fit] |
| CCOc1ccc(N2C(=O)C3CCCN3C2=S)cc1 (stereo not given) |  | inconclusive [activator, partial curve, poor fit] |
| CCOC(=O)N1CCC(NC(=O)c2cnc3n(c2=O)CCS3)CC1 | inactive: -1.99% |  |
| CCN(CC)c1ccc(/C=N/NC(=O)Cc2cccs2)c(O)c1 |  | inconclusive [activator, partial curve, poor fit] |
| Cc1ccnc(NC(=O)CCNS(=O)(=O)c2ccc(C)c(C)c2)c1 |  | inconclusive [activator, partial curve, poor fit] |
| O=C(N/N=C/C(Cl)=C\c1ccccc1)c1cccs1 |  | inconclusive [activator, partial curve, poor fit] |
| CN(CCCCOc1ccc(F)cc1)Cc1ccccc1 |  | inconclusive [activator, single point] |
| O=C(NCc1ccccc1)c1cc2ccccc2o1 |  | inconclusive [activator, single point] |
| COC(=O)CSc1nc2ccc(C)cc2cc1C#N |  | inconclusive [activator, partial curve, poor fit] |
| CCCn1nc(NC(=O)c2cccs2)c2cc3cc(OC)ccc3nc21 |  | inconclusive [activator, single point] |
| O=C(CNC(=O)c1cccs1)N/N=C/c1ccc(O)cc1O | inactive: 5.17% |  |
| Cc1c(C(=O)OCC(=O)N(C)C2CCS(=O)(=O)C2)oc2ccc(Br)cc12 (stereo not given) | inactive: -0.547% |  |
| COc1cccc(CN2CC(C(=O)NCC3CCOCC3)CCC2=O)c1 (stereo not given) | inactive: -7.01% |  |
| O=C(NCCc1ccccc1)NC1CCCCC1 |  | inconclusive [activator, partial curve, poor fit] |
| C=C1SC(=Nc2ccccc2Cl)N(C(=O)c2sc3ccccc3c2Cl)C12CCCCC2 |  | inconclusive [activator, partial curve, poor fit] |

| SMILES | activity change, positive = activation | Potency |
| --- | --- | --- |
| Cc1cc(C)cc(NC(=O)C(=O)NCC2CCCN2S(=O)(=O)c2cccs2)c1 (stereo not given) | inactive: -1.1% |  |
| CCOC(=O)N1CCc2c(sc3c2C(=O)NC(c2ccccc2)N3)C1 (stereo not given) | inactive: 3.99% |  |
| Cn1c(=O)c2c(nc(NCCO)n2CCCc2ccccc2)n(C)c1=O | inactive: -61.8% |  |
| NC1=NC(=Nc2ccc(Br)cc2)c2ccccc21 |  | inconclusive [activator, single point] |
| Cc1ccc(S(=O)(=O)NNC(=S)Nc2cccc(C)c2C)cc1 | inactive: -3.95% |  |
| O=S(=O)(/N=C(/Nc1nc2ccccc2s1)c1ccccc1)c1ccc(F)cc1 |  | inconclusive [activator, partial curve, poor fit] |
| COc1ccc(N2Cc3ccccc3C2=NC(=O)c2cccc([N+](=O)[O-])c2)cc1 |  | inconclusive [activator, full curve, poor fit] |
| O=c1oc(-c2cc3ccccc3o2)nc2sc3c(c12)CCCC3 |  | inconclusive [activator, single point] |
| S=C(NCc1ccco1)N1CCN(C(c2ccccc2)c2ccccc2)CC1 | inactive: 6.72% |  |
| CC(C)Oc1ccc(C(=O)Nc2ccc(N(C)C)cc2)cc1 |  | inconclusive [activator, partial curve, poor fit] |
| O=C(Nc1c(-c2ccccc2)nc2ncccn12)c1cc2ccccc2oc1=O | inactive: -2.81% |  |
| COc1ccc(C=Nc2cccc3ncccc23)cc1 |  | inconclusive [activator, partial curve, poor fit] |
| Fc1ccc(C(CNC(=S)NC2CCCCC2)N2CCOCC2)cc1 (stereo not given) |  | inconclusive [activator, single point] |
| O=C(CCSc1ccccc1)Nc1ccc(S(=O)(=O)Nc2ncccn2)cc1 | inactive: 0.387% |  |
| CCCCc1nc(S(=O)(=O)c2ccc(Cl)cc2)c(N2CCOCC2)o1 |  | inconclusive [activator, partial curve, poor fit] |
| COc1cccc(-c2nnc(-c3ccc(C(F)(F)F)cc3)o2)c1 |  | inconclusive [activator, partial curve, poor fit] |
| CCOC(OCC)c1ccc(/C=C\c2nccc(N)n2)cc1 |  | inconclusive [activator, partial curve, poor fit] |
| CCCCOc1ccc(CSc2n[nH]c(C)n2)cc1 |  | inconclusive [activator, full curve, poor fit] |
| O=C(Nc1cccnc1)c1ccc(Cl)c(S(=O)(=O)N2CCCCC2)c1 | inactive: -16.8% |  |
| CC(=O)Nc1ccc(S(=O)(=O)NCC(=O)OCC(=O)N2CC(C)OC(C)C2)cc1 (stereo not given) | inactive: 4.98% |  |
| COc1ccc(NC(=O)C(c2ccccc2)N(C)C(=O)CNC(C)=O)cc1 (stereo not given) |  | inconclusive [activator, single point] |
| Cc1ccc(NC(=S)c2nc3ccccc3[nH]2)c(C)c1 |  | inconclusive [activator, partial curve, poor fit] |
| O=C(CSc1nc2ccccc2o1)Nc1ccc(N2CCOCC2)c(Cl)c1 |  | inconclusive [activator, full curve, poor fit] |
| O=C(Nc1ncc(Cc2ccccc2Cl)s1)C1=NCCN1 | inactive: -19.7% |  |

| SMILES | activity change, positive = activation | Potency |
| --- | --- | --- |
| O=C(/C=C/c1ccccc1)c1ccc2c(c1)OCCCCO2 |  | inconclusive [activator, full curve, poor fit] |
| O=C(CCN1C(=O)/C(=C\c2ccccc2)SC1=S)N1CCOCC1 |  | inconclusive [activator, partial curve, poor fit] |
| Nc1c2c(nc3ccccc13)N(C1CCCCC1)CC2 | inactive: -4.05% |  |
| O=C(Nc1ccnn1C1CCN(CCCc2ccccc2)CC1)c1cccc(F)c1 |  | inconclusive [activator, single point] |
| O=C(OCC(=O)c1ccc(Br)s1)c1ccc(O)cc1 |  | inconclusive [activator, full curve, poor fit] |
| COc1cccc(C2(c3cccc(OC)c3)CC2C(=O)Nc2cccc3ccccc23)c1 (stereo not given) |  | inconclusive [activator, full curve, poor fit] |
| CC(C)C(NC(=O)C12CC3CC(CC(C3)C1)C2)C(=O)N/N=C/C1=C(N2CCOCC2)C(=C\c2ccc([N+](=O)[O-])cc2)/CC1 (stereo not given) | inactive: -0.259% |  |
| C/C(=N/OCc1ccc(Br)cc1)c1ccccn1 |  | inconclusive [activator, partial curve, poor fit] |
| O=C(Cc1ccccc1)Nc1ccc(NC(=O)c2ccco2)nc1 |  | inconclusive [activator, partial curve, poor fit] |
| C/C(N=Nc1nc2ccccc2s1)=N\Nc1ccccc1O | inactive: -0.628% |  |
| O=C(Nc1ccc(S(=O)(=O)N2CCCCC2)cc1)c1ccncc1 | inactive: -0.615% |  |
| O=C(Nc1ccc(S(=O)(=O)Nc2nccs2)cc1)c1cc(-c2ccccc2)nc2ccccc12 | inactive: -15.3% |  |
| CC(Sc1nnnn1-c1ccc(O)cc1)C(=O)NC1CCCCC1C (stereo not given) | inactive: -8.47% |  |
| O=C(Nc1c(F)cccc1F)c1ccc(-n2cncn2)nc1 | inactive: 2.03% |  |
| O=c1[nH]cnc2scc(C3COc4ccccc4O3)c12 (stereo not given) |  | inconclusive [activator, partial curve, poor fit] |
| O=C(N/N=C/c1cccs1)c1n[nH]c2c1CCC2 |  | inconclusive [activator, full curve, poor fit] |
| O=c1oc2cc(OCc3ccc(C(F)(F)F)cc3)ccc2cc1-c1ccccn1 | inactive: 18.1% |  |
| O=S(=O)(Nc1ccc(-c2nc3cccnc3s2)cc1)c1cccs1 |  | inconclusive [activator, partial curve, poor fit] |
| Cn1cc(/C=N/NC(=O)c2cccc([N+](=O)[O-])c2)c2ccccc21 | inactive: 0.86% |  |
| O=c1oc2cc(O)ccc2cc1-c1ccc(F)cc1 |  | inconclusive [activator, partial curve, poor fit] |
| O=C(O)CCC(=O)NCCn1c(-c2ccccc2)csc1=Nc1ccccc1 |  | inconclusive [activator, single point] |
| O=C(Nc1nc(=O)c2ccccc2s1)c1ccc(Cl)cc1 |  | inconclusive [activator, partial curve, poor fit] |
